Reference: the supplement of paper PMC4967469
A lower IC50 marks a more sensitive line; a limit (>, <) means that the fit lies beyond the doses tested. AUC is the area under the same curve over the 256-fold range up to the top dose, as a fraction; values near 1 show little effect. For part of these data: An inferred top dose comes from the curve model; the source does not state it.

Columns and labels:
Experiment in all cases: Viability of human cancer cell lines after 72 h of drug (GDSC screen)
Bexarotene = compound: C=C(c1ccc(C(=O)O)cc1)c1cc2c(cc1C)C(C)(C)CCC2(C)C [Bexarotene]; conditions: top dose 8 µM
Procedure: (§1)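 Human cancer cell lines in 384-well plates, medium with 10% serum, drug for 72 h over a 256-fold dose range (nine 2-fold or five 4-fold steps up to the top dose). Adherent lines were fixed and stained with the nucleic acid dye Syto60, suspension lines read with resazurin; signal relative to control wells, capped at 0 and 100%. One two-parameter sigmoid per drug and line, fitted in a mixed model over all curves with the slope shared within a line.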

NPK76-II-72-1 = compound: COc1cc(C(=O)NC2CCN(C)CC2)ccc1Nc1ncc2c(n1)N(C1CCCC1)C(C)CC(=O)N2C [NPK76-II-72-1]; conditions: top dose 10.24 µM; top dose inferred
Procedure: as §1

Etoposide = compound: COc1cc([C@@H]2c3cc4c(cc3[C@@H](O[C@@H]3O[C@@H]5CO[C@@H](C)O[C@H]5[C@H](O)[C@H]3O)[C@H]3COC(=O)[C@H]23)OCO4)cc(OC)c1O [Etoposide]; conditions: top dose 16 µM
Procedure: as §1

YK 4-279 = compound: COc1ccc(C(=O)CC2(O)C(=O)Nc3c(Cl)ccc(Cl)c32)cc1 [YK 4-279]; conditions: top dose 10 µM
Procedure: as §1

BMS-345541 = compound: Cc1ccc2nc(NCCN)c3ncc(C)n3c2c1 [BMS-345541]; conditions: top dose 16 µM
Procedure: as §1

AZD7762 = compound: NC(=O)Nc1cc(-c2cccc(F)c2)sc1C(=O)N[C@H]1CCCNC1 [AZD7762]; conditions: top dose 2 µM
Procedure: as §1

GSK-650394 = compound: O=C(O)c1ccc(-c2c[nH]c3ncc(-c4ccccc4)cc23)cc1C1CCCC1 [GSK-650394]; conditions: top dose 16 µM; top dose inferred
Procedure: as §1

XAV 939 = compound: Oc1nc(-c2ccc(C(F)(F)F)cc2)nc2c1CSCC2 [XAV 939]; conditions: top dose 5 µM; top dose inferred
Procedure: as §1

Row | Cell Line | AUC (Bexarotene) | IC50 (Bexarotene) [µM] | AUC (NPK76-II-72-1) | IC50 (NPK76-II-72-1) [µM] | AUC (Etoposide) | IC50 (Etoposide) [µM] | AUC (YK 4-279) | IC50 (YK 4-279) [µM] | AUC (BMS-345541) | IC50 (BMS-345541) [µM] | AUC (AZD7762) | IC50 (AZD7762) [µM] | AUC (GSK-650394) | IC50 (GSK-650394) [µM] | AUC (XAV 939) | IC50 (XAV 939) [µM]
1 | M14 (melanoma, adherent) | 0.92 | > 8 | 0.859 | 9.25 | 0.814 | 9.31 | 0.666 | 1.86 | 0.974 | > 16 | 0.545 | 0.167 | 0.983 | > 16 | 0.985 | > 5
2 | MC116 (B-cell lymphoma, suspension) | 0.961 | 7.43 | 0.937 | 7.78 | 0.934 | 11.9 | 0.69 | 1.79 | 0.808 | 5.54 | 0.738 | 0.467 | 0.967 | 15.9 | 0.999 | > 5
3 | MC-IXC (neuroblastoma, adherent) | 0.919 | 6.27 | 0.748 | 2.58 | 0.169 | 0.15 | 0.671 | 1.62 | 0.91 | 11.6 | 0.498 | 0.124 | 0.945 | > 16 | 0.996 | > 5
4 | MDA-MB-175-VII (breast, adherent) | 0.97 | > 8 | 0.983 | > 10.2 | 0.92 | > 16 | 0.975 | > 10 | 0.914 | > 16 | 0.931 | > 2 | 0.979 | > 16 | 0.986 | > 5
5 | MDA-MB-330 (breast, adherent) | 0.85 | 7.4 | 0.92 | > 10.2 | 0.929 | > 16 | 0.898 | > 10 | 0.917 | > 16 | 0.912 | > 2 | 0.945 | > 16 | 0.978 | > 5
6 | MDA-MB-361 (breast, adherent) | 0.946 | > 8 | 0.949 | > 10.2 | 0.869 | 14.6 | 0.749 | 3.23 | 0.942 | > 16 | 0.738 | 0.593 | 0.871 | 14.8 | 0.968 | > 5
7 | MDA-MB-436 (breast, adherent) | 0.966 | > 8 | 0.93 | > 10.2 | 0.809 | 11.1 | 0.812 | 7.13 | 0.973 | > 16 | 0.803 | 1.31 | 0.976 | > 16 | 0.918 | > 5
8 | MDA-MB-453 (breast, adherent) | 0.924 | > 8 | 0.804 | 5.83 | 0.978 | > 16 | 0.764 | 4.02 | 0.842 | 13.1 | 0.857 | 1.93 | 0.862 | > 16 | 0.984 | > 5
9 | ME-1 (acute myeloid leukaemia, suspension) | 0.969 | > 8 | 0.773 | 4.27 | 0.976 | > 16 | 0.985 | > 10 | 0.814 | 9.53 | 0.913 | > 2 | 0.987 | > 16 | 0.982 | > 5
10 | ME-180 (cervix, adherent) | 0.981 | > 8 | 0.822 | 6.34 | 0.503 | 1.02 | 0.656 | 1.73 | 0.793 | 7.68 | 0.735 | 0.606 | 0.911 | > 16 | 0.981 | > 5
11 | MEG-01 (chronic myeloid leukaemia, suspension) | 0.902 | > 8 | 0.623 | 1.36 | 0.696 | 3.42 | 0.729 | 2.68 | 0.686 | 3.2 | 0.477 | 0.109 | 0.752 | 5.02 | 0.985 | > 5
12 | MEL-JUSO (melanoma, adherent) | 0.956 | > 8 | 0.764 | 4.13 | 0.434 | 0.646 | 0.789 | 4.98 | 0.726 | 4.8 | 0.529 | 0.151 | 0.736 | 5.16 | 0.976 | > 5
13 | MES-SA (uterus, adherent) | 0.992 | > 8 | 0.991 | > 10.2 | 0.358 | 0.433 | 0.511 | 0.665 | 0.825 | 7.79 | 0.767 | 0.639 | 0.705 | 3.4 | 0.99 | > 5
14 | MFE-280 (endometrium, adherent) | 0.982 | > 8 | 0.868 | > 10.2 | 0.883 | > 16 | 0.817 | 7.58 | 0.935 | > 16 | 0.921 | > 2 | 0.945 | > 16 | 0.98 | > 5
15 | MFE-296 (endometrium, adherent) | 0.968 | > 8 | 0.949 | > 10.2 | 0.488 | 0.925 | 0.482 | 0.555 | 0.938 | > 16 | 0.667 | 0.378 | 0.802 | 8.54 | 0.974 | > 5
16 | MFH-ino (soft tissue, adherent) | 0.774 | 3.69 | 0.965 | > 10.2 | 0.469 | 0.81 | 0.793 | 5.46 | 0.906 | > 16 | 0.713 | 0.563 | 0.505 | 1.03 | 0.91 | > 5
17 | MFM-223 (breast, adherent) | 0.985 | > 8 | 0.772 | 3.91 | 0.985 | > 16 | 0.666 | 1.8 | 0.942 | > 16 | 0.734 | 0.575 | 0.989 | > 16 | 0.914 | > 5

Row | Cell Line | AUC (Bexarotene) | IC50 (Bexarotene) [µM] | AUC (NPK76-II-72-1) | IC50 (NPK76-II-72-1) [µM] | AUC (Etoposide) | IC50 (Etoposide) [µM] | AUC (YK 4-279) | IC50 (YK 4-279) [µM] | AUC (BMS-345541) | IC50 (BMS-345541) [µM] | AUC (AZD7762) | IC50 (AZD7762) [µM] | AUC (GSK-650394) | IC50 (GSK-650394) [µM] | AUC (XAV 939) | IC50 (XAV 939) [µM]
18 | MHH-ES-1 (Ewing sarcoma, adherent) | 0.972 | > 8 | 0.599 | 1.19 | 0.399 | 0.53 | 0.623 | 1.35 | 0.854 | 12.4 | 0.529 | 0.15 | 0.83 | 9.88 | 0.969 | > 5
19 | MHH-PREB-1 (B-cell leukaemia, suspension) | 0.948 | > 8 | 0.456 | 0.492 | 0.804 | 7.02 | 0.672 | 1.77 | 0.718 | 3.82 | 0.468 | 0.103 | 0.886 | 14.5 | 0.956 | > 5
20 | MLMA (hairy cell leukaemia, semi-adherent) | 0.986 | > 8 | 0.67 | 1.91 | 0.699 | 3.65 | 0.553 | 0.872 | 0.873 | 15.7 | 0.364 | 0.0526 | 0.969 | > 16 | 0.983 | > 5
21 | MMAC-SF (melanoma, adherent) | 0.987 | > 8 | 0.979 | > 10.2 | 0.751 | 5.47 | 0.705 | 2.43 | 0.983 | > 16 | 0.982 | > 2 | 0.888 | > 16 | 0.986 | > 5
22 | MN-60 (B-cell leukaemia, suspension) | 0.981 | > 8 | 0.906 | > 10.2 | 0.888 | > 16 | 0.953 | > 10 | 0.799 | 8.01 | 0.954 | > 2 | 0.988 | > 16 | 0.986 | > 5
23 | MOG-G-CCM (glioma, adherent) | 0.961 | > 8 | 0.77 | 4.53 | 0.741 | 5.57 | 0.717 | 2.89 | 0.84 | 13.8 | 0.664 | 0.387 | 0.92 | > 16 | 0.903 | > 5
24 | MOG-G-UVW (glioma, adherent) | 0.93 | > 8 | 0.919 | > 10.2 | 0.454 | 0.752 | 0.58 | 1.03 | 0.836 | 10.2 | 0.576 | 0.2 | 0.833 | 9.94 | 0.934 | > 5
25 | MOLT-4 (lymphoblastic leukaemia, suspension) | 0.966 | > 8 | 0.741 | 2.65 | 0.261 | 0.244 | 0.674 | 1.72 | 0.6 | 1.78 | 0.56 | 0.176 | 0.668 | 2.65 | 0.98 | > 5
26 | MONO-MAC-6 (acute myeloid leukaemia, suspension) | 0.881 | > 8 | 0.729 | 2.99 | 0.801 | 8.36 | 0.786 | 4.6 | 0.375 | 0.442 | 0.088 | < 0.00781 | 0.533 | 1.24 | 0.922 | > 5
27 | MPP-89 (mesothelioma, adherent) | 0.947 | > 8 | 0.865 | > 10.2 | 0.821 | 13.2 | 0.894 | > 10 | 0.953 | > 16 | 0.625 | 0.307 | 0.746 | 6.45 | 0.944 | > 5
28 | MRK-nu-1 (breast, suspension) | 0.936 | > 8 | 0.78 | 3.85 | 0.366 | 0.44 | 0.709 | 2.29 | 0.921 | > 16 | 0.942 | > 2 | 0.646 | 2.44 | 0.98 | > 5
29 | MS751 (cervix, adherent) | 0.988 | > 8 | 0.91 | > 10.2 | 0.585 | 1.67 | 0.631 | 1.39 | 0.9 | > 16 | 0.831 | 1.13 | 0.914 | > 16 | 0.926 | > 5
30 | MS-1 (small cell lung carcinoma, suspension) | 0.985 | > 8 | 0.863 | 7.36 | 0.71 | 3.62 | 0.905 | > 10 | 0.861 | 11.3 | 0.871 | 1.55 | 0.933 | > 16 | 0.984 | > 5
31 | MZ1-PC (pancreas, adherent) | 0.852 | > 8 | 0.742 | 3.79 | 0.452 | 0.719 | 0.72 | 3.11 | 0.848 | > 16 | 0.902 | > 2 | 0.828 | 13.3 | 0.861 | > 5
32 | Mo-T (hairy cell leukaemia, suspension) | 0.973 | > 8 | 0.889 | > 10.2 | 0.948 | > 16 | 0.808 | 5.3 | 0.829 | 10.2 | 0.756 | 0.698 | 0.975 | > 16 | 0.981 | > 5
33 | NAMALWA (Burkitt lymphoma, suspension) | 0.979 | > 8 | 0.563 | 0.925 | 0.431 | 0.668 | 0.715 | 2.26 | 0.802 | 6.47 | 0.531 | 0.15 | 0.985 | > 16 | 0.99 | > 5
